This is one part of the list. The list includes weakly bound sequences.

The target of this assay is T1, MBP-FoxP3dN (UniProt Q99JB6).
T1 sequence: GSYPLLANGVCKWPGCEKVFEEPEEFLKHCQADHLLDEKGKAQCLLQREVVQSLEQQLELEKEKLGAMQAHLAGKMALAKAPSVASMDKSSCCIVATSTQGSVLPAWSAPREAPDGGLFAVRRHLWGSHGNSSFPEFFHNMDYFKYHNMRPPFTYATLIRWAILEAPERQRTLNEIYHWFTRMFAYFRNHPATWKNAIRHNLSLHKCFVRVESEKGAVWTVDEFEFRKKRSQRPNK
The assay can be described thus: PD-seq (MBP pull-down with sequencing). The note with it: 20 mM Tris-HCl pH 7.5, 100 mM NaCl, 1.5 mM MgCl2, 0.4 uM protein, 0.1 uM dsDNA library, 30 min, room temperature, amylose pull-down; high values mean tight binding; double strand, one strand shown.
Regarding “GATGATTGTTCTCCCAGCTGATGAATTTGTGCAGTCGAGTAAACAAATTTTCCTAATCTTTCTGTTCAAGCGCCATCTAC”, the binding signal (RPM ratio (pull-down/input)) was found to be 1.42.
Next, “GATGATTGTTCTCCCAGCTGATGAATTTCCGGTATCGAGTAAACAAATTTTCCTAATCTTTCTGTTCAAGCGCCATCTAC”: 0.44; “GATGATTGTTCTCCCAGCTGATGAATTGCCGGGTTCGAGTAAACAAATTTTCCTAATCTTTCTGTTCAAGCGCCATCTAC”: 0.504.
Consider “GATGATTGTTCTCCCAGCTGATGAATTCTATCTCTCGAGTAAACAAATTTTCCTAATCTTTCTGTTCAAGCGCCATCTAC”, for which the binding signal (RPM ratio (pull-down/input)) is 0.512.
In the case of “GATGATTGTTCTCCCAGCTGATGAATTGTTTTGGTCGAGTAAACAAATTTTCCTAATCTTTCTGTTCAAGCGCCATCTAC”, the binding signal (RPM ratio (pull-down/input)) amounted to 3.65.
Next, “GATGATTGTTCTCCCAGCTGATGAATTAGTAGAGTCGAGTAAACAAATTTTCCTAATCTTTCTGTTCAAGCGCCATCTAC”: 0.5; “GATGATTGTTCTCCCAGCTGATGAATTAGAATATTCGAGTAAACAAATTTTCCTAATCTTTCTGTTCAAGCGCCATCTAC”: 0.473.
For “GATGATTGTTCTCCCAGCTGATGAATTATCGAATTCGAGTAAACAAATTTTCCTAATCTTTCTGTTCAAGCGCCATCTAC” the value was 0.746.
Next, “GATGATTGTTCTCCCAGCTGATGAATTCGCCTTCTCGAGTAAACAAATTTTCCTAATCTTTCTGTTCAAGCGCCATCTAC”: 1.49.
With “GATGATTGTTCTCCCAGCTGATGAATTGTAAATTTCGAGTAAACAAATTTTCCTAATCTTTCTGTTCAAGCGCCATCTAC”, the binding signal (RPM ratio (pull-down/input)) stood at 0.529.
Next, “GATGATTGTTCTCCCAGCTGATGAATTAACATGATCGAGTAAACAAATTTTCCTAATCTTTCTGTTCAAGCGCCATCTAC”: 0.33.
For “GATGATTGTTCTCCCAGCTGATGAATTTTCCACGTCGAGTAAACAAATTTTCCTAATCTTTCTGTTCAAGCGCCATCTAC” the value was 0.233.
For “GATGATTGTTCTCCCAGCTGATGAATTAGTGAAGTCGAGTAAACAAATTTTCCTAATCTTTCTGTTCAAGCGCCATCTAC” the value was 0.331; for “GATGATTGTTCTCCCAGCTGATGAATTTTGCATATCGAGTAAACAAATTTTCCTAATCTTTCTGTTCAAGCGCCATCTAC”, 4.31; for “GATGATTGTTCTCCCAGCTGATGAATTCCTGAATTCGAGTAAACAAATTTTCCTAATCTTTCTGTTCAAGCGCCATCTAC”, 0.481.
“GATGATTGTTCTCCCAGCTGATGAATTGCGGTCGTCGAGTAAACAAATTTTCCTAATCTTTCTGTTCAAGCGCCATCTAC”: the binding signal (RPM ratio (pull-down/input)) was determined as 0.848.
Next, “GATGATTGTTCTCCCAGCTGATGAATTTTCCACTTCGAGTAAACAAATTTTCCTAATCTTTCTGTTCAAGCGCCATCTAC”: 0.262; “GATGATTGTTCTCCCAGCTGATGAATTGTTTGATTCGAGTAAACAAATTTTCCTAATCTTTCTGTTCAAGCGCCATCTAC”: 2.06; “GATGATTGTTCTCCCAGCTGATGAATTAATTCCTTCGAGTAAACAAATTTTCCTAATCTTTCTGTTCAAGCGCCATCTAC”: 0.32.
“GATGATTGTTCTCCCAGCTGATGAATTACAGGGGTCGAGTAAACAAATTTTCCTAATCTTTCTGTTCAAGCGCCATCTAC”: the binding signal (RPM ratio (pull-down/input)) came out at 0.438.
For “GATGATTGTTCTCCCAGCTGATGAATTACGACCTTCGAGTAAACAAATTTTCCTAATCTTTCTGTTCAAGCGCCATCTAC” the value was 0.433; for “GATGATTGTTCTCCCAGCTGATGAATTGAACGGATCGAGTAAACAAATTTTCCTAATCTTTCTGTTCAAGCGCCATCTAC”, 0.215; for “GATGATTGTTCTCCCAGCTGATGAATTACACTAATCGAGTAAACAAATTTTCCTAATCTTTCTGTTCAAGCGCCATCTAC”, 0.496.
In the case of “GATGATTGTTCTCCCAGCTGATGAATTATCATAATCGAGTAAACAAATTTTCCTAATCTTTCTGTTCAAGCGCCATCTAC”, the binding signal (RPM ratio (pull-down/input)) is 0.491.
In the case of “GATGATTGTTCTCCCAGCTGATGAATTACTTCTCTCGAGTAAACAAATTTTCCTAATCTTTCTGTTCAAGCGCCATCTAC”, the binding signal (RPM ratio (pull-down/input)) worked out at 0.235.
Consider “GATGATTGTTCTCCCAGCTGATGAATTACGCTCGTCGAGTAAACAAATTTTCCTAATCTTTCTGTTCAAGCGCCATCTAC”, for which the binding signal (RPM ratio (pull-down/input)) amounted to 0.801.
Regarding “GATGATTGTTCTCCCAGCTGATGAATTCTATTCCTCGAGTAAACAAATTTTCCTAATCTTTCTGTTCAAGCGCCATCTAC”, the binding signal (RPM ratio (pull-down/input)) was 0.571.
Next, “GATGATTGTTCTCCCAGCTGATGAATTCACTCGGTCGAGTAAACAAATTTTCCTAATCTTTCTGTTCAAGCGCCATCTAC”: 0.251; “GATGATTGTTCTCCCAGCTGATGAATTATTTCCGTCGAGTAAACAAATTTTCCTAATCTTTCTGTTCAAGCGCCATCTAC”: 0.296; “GATGATTGTTCTCCCAGCTGATGAATTCCGTCCTTCGAGTAAACAAATTTTCCTAATCTTTCTGTTCAAGCGCCATCTAC”: 0.472.
As for “GATGATTGTTCTCCCAGCTGATGAATTTTGGTTGTCGAGTAAACAAATTTTCCTAATCTTTCTGTTCAAGCGCCATCTAC”, the binding signal (RPM ratio (pull-down/input)) came out at 2.04.
For “GATGATTGTTCTCCCAGCTGATGAATTAAACTGTTCGAGTAAACAAATTTTCCTAATCTTTCTGTTCAAGCGCCATCTAC” the value was 0.398; for “GATGATTGTTCTCCCAGCTGATGAATTGGTTAAATCGAGTAAACAAATTTTCCTAATCTTTCTGTTCAAGCGCCATCTAC”, 0.261.
With “GATGATTGTTCTCCCAGCTGATGAATTGTTGTGCTCGAGTAAACAAATTTTCCTAATCTTTCTGTTCAAGCGCCATCTAC”, the binding signal (RPM ratio (pull-down/input)) came to 5.43.
“GATGATTGTTCTCCCAGCTGATGAATTTGTAAACTCGAGTAAACAAATTTTCCTAATCTTTCTGTTCAAGCGCCATCTAC”: the binding signal (RPM ratio (pull-down/input)) came to 2.
Next, “GATGATTGTTCTCCCAGCTGATGAATTCTCTGCATCGAGTAAACAAATTTTCCTAATCTTTCTGTTCAAGCGCCATCTAC”: 0.793.
With “GATGATTGTTCTCCCAGCTGATGAATTTTACTCTTCGAGTAAACAAATTTTCCTAATCTTTCTGTTCAAGCGCCATCTAC”, the binding signal (RPM ratio (pull-down/input)) turned out to be 0.271.
For “GATGATTGTTCTCCCAGCTGATGAATTATCGCAGTCGAGTAAACAAATTTTCCTAATCTTTCTGTTCAAGCGCCATCTAC” the value was 0.564; for “GATGATTGTTCTCCCAGCTGATGAATTCATTCTTTCGAGTAAACAAATTTTCCTAATCTTTCTGTTCAAGCGCCATCTAC”, 0.262; for “GATGATTGTTCTCCCAGCTGATGAATTTGATACGTCGAGTAAACAAATTTTCCTAATCTTTCTGTTCAAGCGCCATCTAC”, 1.1.
With “GATGATTGTTCTCCCAGCTGATGAATTCTCACGGTCGAGTAAACAAATTTTCCTAATCTTTCTGTTCAAGCGCCATCTAC”, the binding signal (RPM ratio (pull-down/input)) worked out at 0.204.
Next, “GATGATTGTTCTCCCAGCTGATGAATTCACGTCATCGAGTAAACAAATTTTCCTAATCTTTCTGTTCAAGCGCCATCTAC”: 0.59.
Regarding “GATGATTGTTCTCCCAGCTGATGAATTCTGAGACTCGAGTAAACAAATTTTCCTAATCTTTCTGTTCAAGCGCCATCTAC”, the binding signal (RPM ratio (pull-down/input)) was 0.704.
Next, “GATGATTGTTCTCCCAGCTGATGAATTGAGCTTTTCGAGTAAACAAATTTTCCTAATCTTTCTGTTCAAGCGCCATCTAC”: 2.47; “GATGATTGTTCTCCCAGCTGATGAATTCCTCCAGTCGAGTAAACAAATTTTCCTAATCTTTCTGTTCAAGCGCCATCTAC”: 0.166; “GATGATTGTTCTCCCAGCTGATGAATTTTTCGCTTCGAGTAAACAAATTTTCCTAATCTTTCTGTTCAAGCGCCATCTAC”: 0.272.
Regarding “GATGATTGTTCTCCCAGCTGATGAATTGAGAATCTCGAGTAAACAAATTTTCCTAATCTTTCTGTTCAAGCGCCATCTAC”, the binding signal (RPM ratio (pull-down/input)) turned out to be 1.49.
Next, “GATGATTGTTCTCCCAGCTGATGAATTTTGAAACTCGAGTAAACAAATTTTCCTAATCTTTCTGTTCAAGCGCCATCTAC”: 0.974; “GATGATTGTTCTCCCAGCTGATGAATTGGAACAGTCGAGTAAACAAATTTTCCTAATCTTTCTGTTCAAGCGCCATCTAC”: 0.229; “GATGATTGTTCTCCCAGCTGATGAATTCGCCAAGTCGAGTAAACAAATTTTCCTAATCTTTCTGTTCAAGCGCCATCTAC”: 0.211.
For “GATGATTGTTCTCCCAGCTGATGAATTTCGAAGATCGAGTAAACAAATTTTCCTAATCTTTCTGTTCAAGCGCCATCTAC” the value was 0.227; for “GATGATTGTTCTCCCAGCTGATGAATTTGTGGGCTCGAGTAAACAAATTTTCCTAATCTTTCTGTTCAAGCGCCATCTAC”, 3.18; for “GATGATTGTTCTCCCAGCTGATGAATTTTATGCATCGAGTAAACAAATTTTCCTAATCTTTCTGTTCAAGCGCCATCTAC”, 1.54.
For the sequence “GATGATTGTTCTCCCAGCTGATGAATTAGCTCCATCGAGTAAACAAATTTTCCTAATCTTTCTGTTCAAGCGCCATCTAC”, the binding signal (RPM ratio (pull-down/input)) is 0.302.
Next, “GATGATTGTTCTCCCAGCTGATGAATTTTCATTGTCGAGTAAACAAATTTTCCTAATCTTTCTGTTCAAGCGCCATCTAC”: 0.641; “GATGATTGTTCTCCCAGCTGATGAATTCTTGCACTCGAGTAAACAAATTTTCCTAATCTTTCTGTTCAAGCGCCATCTAC”: 0.622.
Turning to “GATGATTGTTCTCCCAGCTGATGAATTTGCGCAGTCGAGTAAACAAATTTTCCTAATCTTTCTGTTCAAGCGCCATCTAC”, the binding signal (RPM ratio (pull-down/input)) came to 0.71.
For “GATGATTGTTCTCCCAGCTGATGAATTGATTATCTCGAGTAAACAAATTTTCCTAATCTTTCTGTTCAAGCGCCATCTAC” the value was 1.54; for “GATGATTGTTCTCCCAGCTGATGAATTTCTCTAGTCGAGTAAACAAATTTTCCTAATCTTTCTGTTCAAGCGCCATCTAC”, 0.192.
For the sequence “GATGATTGTTCTCCCAGCTGATGAATTTGGCGTATCGAGTAAACAAATTTTCCTAATCTTTCTGTTCAAGCGCCATCTAC”, the binding signal (RPM ratio (pull-down/input)) was 1.36.
Next, “GATGATTGTTCTCCCAGCTGATGAATTGAACAGCTCGAGTAAACAAATTTTCCTAATCTTTCTGTTCAAGCGCCATCTAC”: 0.228; “GATGATTGTTCTCCCAGCTGATGAATTGTTAAACTCGAGTAAACAAATTTTCCTAATCTTTCTGTTCAAGCGCCATCTAC”: 0.352; “GATGATTGTTCTCCCAGCTGATGAATTCCCCTGTTCGAGTAAACAAATTTTCCTAATCTTTCTGTTCAAGCGCCATCTAC”: 0.236.

Source of the values: publication PMC12820563.
